Reference: patent US6030942A, “Peptides peptide analogs peptidomimetics and other small molecules useful for inhibiting the activity of ribonucleotide reductase” (The Trustees of the University of Pennsylvania, priority 1998, dated 2000)
Part of at least one peptide drawing is inferred or uncertain, most often the ends. Ends that are not written are not given here.

Key:
[1] = biological target: T1, mammalian ribonucleotide reductase (Bos taurus, UniProt Q32LP1); test: Peptide inhibition of mammalian ribonucleotide reductase activity; assay type: biochemical; conditions: for % RI (relative inhibitory potency, (IC50 AcFTLDADF)/(IC50 peptide analog)) / Fold decrease in RI relative to N-AcFTLDADF: Table 8; for % RI (relative inhibitory potency, (IC50 AcFTLDADF)/(IC50 peptide analog)): mean and average deviation of 2-3 determinations, others single
T1 sequence (Q32LP1 1-791): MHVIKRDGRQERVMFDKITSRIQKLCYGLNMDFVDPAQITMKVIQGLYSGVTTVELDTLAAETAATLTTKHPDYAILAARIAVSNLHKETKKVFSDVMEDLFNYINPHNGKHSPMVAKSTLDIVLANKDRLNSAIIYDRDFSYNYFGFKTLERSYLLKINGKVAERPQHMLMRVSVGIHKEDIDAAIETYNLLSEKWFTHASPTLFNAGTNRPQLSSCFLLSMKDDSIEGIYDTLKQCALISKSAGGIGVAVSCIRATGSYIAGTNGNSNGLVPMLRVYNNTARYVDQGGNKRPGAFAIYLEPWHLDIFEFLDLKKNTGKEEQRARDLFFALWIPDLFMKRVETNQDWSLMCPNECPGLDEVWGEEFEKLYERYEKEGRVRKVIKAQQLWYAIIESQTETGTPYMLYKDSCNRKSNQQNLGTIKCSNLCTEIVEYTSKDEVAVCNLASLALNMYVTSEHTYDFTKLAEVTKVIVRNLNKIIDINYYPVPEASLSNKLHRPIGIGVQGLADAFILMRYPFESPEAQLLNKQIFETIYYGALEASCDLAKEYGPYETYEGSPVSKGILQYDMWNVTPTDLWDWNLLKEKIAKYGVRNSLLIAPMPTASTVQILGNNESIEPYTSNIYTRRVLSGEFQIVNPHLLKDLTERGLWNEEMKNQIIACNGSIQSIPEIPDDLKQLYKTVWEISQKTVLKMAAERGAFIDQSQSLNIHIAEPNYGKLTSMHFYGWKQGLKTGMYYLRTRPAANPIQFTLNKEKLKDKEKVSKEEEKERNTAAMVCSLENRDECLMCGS

mouse R1 = biological target: T2, mouse R1 (Mus musculus, UniProt P07742); conditions: cited from earlier work
T2 construct: made in house; host or cells: R1: Hi5 or Sf9 insect cells (baculovirus); R2: E. coli
T2 sequence (P07742 1-792): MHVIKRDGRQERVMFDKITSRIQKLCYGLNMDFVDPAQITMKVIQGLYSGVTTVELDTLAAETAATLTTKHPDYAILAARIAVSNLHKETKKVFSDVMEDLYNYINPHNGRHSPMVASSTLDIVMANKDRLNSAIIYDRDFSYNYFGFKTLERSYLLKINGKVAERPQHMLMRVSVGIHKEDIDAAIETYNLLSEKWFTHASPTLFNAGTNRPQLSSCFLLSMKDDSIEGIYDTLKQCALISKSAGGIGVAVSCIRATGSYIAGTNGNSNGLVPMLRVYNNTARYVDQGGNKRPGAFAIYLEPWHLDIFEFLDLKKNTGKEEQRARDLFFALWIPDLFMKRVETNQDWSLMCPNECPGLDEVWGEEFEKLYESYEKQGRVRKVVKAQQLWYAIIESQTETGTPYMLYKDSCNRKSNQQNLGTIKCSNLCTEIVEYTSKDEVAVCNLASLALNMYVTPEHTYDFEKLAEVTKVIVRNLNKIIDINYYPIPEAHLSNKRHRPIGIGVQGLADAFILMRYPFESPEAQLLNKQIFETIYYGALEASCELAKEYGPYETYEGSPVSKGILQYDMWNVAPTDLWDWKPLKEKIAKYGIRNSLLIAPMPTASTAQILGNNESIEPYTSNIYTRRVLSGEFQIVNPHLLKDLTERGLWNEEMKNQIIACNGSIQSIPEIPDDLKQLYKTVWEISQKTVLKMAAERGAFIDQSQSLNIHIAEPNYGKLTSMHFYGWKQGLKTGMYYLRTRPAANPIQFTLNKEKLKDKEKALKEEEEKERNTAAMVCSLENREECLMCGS

Substance	% RI (relative inhibitory potency, (IC50 AcFTLDADF)/(IC50 peptide analog)) [1]	also measured
Ac-FALDADF [Ac-FALDADF, Acetyl-Phe-Ala-Leu-Asp-Ala-Asp-Phe]	24 ± 4.1%	
Ac-FLDADF [Ac-F-LDADF]	2.5%	
Ac-FTLNADF [Ac-FTLNADF, Acetyl-Phe-Thr-Leu-Asn-Ala-Asp-Phe]	40 ± 2.4%	Fold decrease in RI relative to N-AcFTLDADF [1]: two
Ac-LDADF [Ac-LDADF]	< 3%	Fold decrease in RI relative to N-AcFTLDADF [1]: at least 40 fold
Ac-NSFTLDADF	100%	Affinity for mR1 compared with AcFTLDADF (mouse R1): same affinity
FTLDADF [FTLDADF, Phe-Thr-Leu-Asp-Ala-Asp-Phe]	< 3%	
NCFTLDADF		RR inhibition compared with AcFTLDADF [1]: comparable to AcFTLDADF
SFTLDADF	25%	
